Here are results for 22 molecules from publication PMC12136788.

Sequences and labels used below:
T1: UNK ZnF1-3 (human, UniProt Q9C0B0 31-174)
T1 sequence: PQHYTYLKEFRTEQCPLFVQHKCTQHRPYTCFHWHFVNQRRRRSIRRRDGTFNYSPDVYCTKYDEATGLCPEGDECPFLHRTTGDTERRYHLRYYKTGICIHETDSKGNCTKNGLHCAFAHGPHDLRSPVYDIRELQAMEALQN

B1: chr1:169100865:169100866:+_ENSG00000143153_ENST00000367816|hu_mus|motif|central (ssRNA)
RNA: GGGAGUUCUACAGUCCGACGAUCGUGUAAAGCAUAGAGAUUAAGUGUAGGUCCCAUACGUAUGACAGUUUGUUCAAGACGGGUAGGUUUGUGUAUCUUUUUUUAACUUAUUAAAUGGCUAGUGGGAAAGAUUUGUGCUUGUGACAACAGAGGAUUGAGCAUCA
B2: chr8:48798321:48798322:-_ENSMUSG00000038069_ENSMUST00000038738|mus_hu|FALSE|FALSE (ssRNA)
RNA: GGGAGUUCUACAGUCCGACGAUCCAGUUCAUCUCUUGUUGUAUAGGUUGGAGCAUCUGUCACUUUGAUGCCUUCAGCCAUACUAAGUAUUUUAUCCAUAACUUUUUGAGGGUAUCGGCACCCGAGGAAGACGUGGUUCGCCCACAACAGAGGAUUGAGCAUCA
B3: chr5:138658563:138658564:+_ENSG00000015479_ENST00000502499|hu_hu|FALSE|FALSE (ssRNA)
RNA: GGGAGUUCUACAGUCCGACGAUCAUCUUUUUUCACAGCUUUAUCUGAUGGUUCCUUUUUCCCAUCAGAAGCCACAUCACCUAAAUUAGCAAGAUCGGUCUCGUCUCCCACUGAACUGCCACUUUCUAGCAGUGCUGCUGCUUCCAACAGAGGAUUGAGCAUCA
B4: chr11:116197844:116197845:-_ENSMUSG00000052949_ENSMUST00000100202|mus_mus|FALSE|FALSE (ssRNA)
RNA: GGGAGUUCUACAGUCCGACGAUCAGCACACGCACGCACACACACACAUACACACACACAUACACACAGGUGUUCAGGCCCUAAAACAAAGUGUGCAGCCAGCACGCCAACACCAGAUGGACAGGACUAGUUCCCCAGUGGGAUCAACAGAGGAUUGAGCAUCA
B5: chr3:179287964:179287965:+_ENSG00000136518_ENST00000429709|hu_mus|motif|central (ssRNA)
RNA: GGGAGUUCUACAGUCCGACGAUCCUUGAGUGGUGAGAUGGCCUCCAUGUUCUCCCUGGGCACGCGGAGGGCAUUGGUGUCGGUGUAGUAGGUGGGCCCGCCCUGCUUGCCUUUGUCACCAUCAAUCUCCAUCAUUGUACUUCCCAACAGAGGAUUGAGCAUCA
B6: chr2:136513182:136513183:+_ENSG00000144224_ENST00000272638|hu_mus|FALSE|FALSE (ssRNA)
RNA: GGGAGUUCUACAGUCCGACGAUCGUCAGAGGUAGCUGGUGUCUCACAAAGCUCUGUAUUUUUGGACUCGGGAUUUUCACAUACAUCAGGUUCAAAUGAGGCAGAUGGGGUAGAUACUGAACUUUCUGACUGGUUGUCAUUUGUCAACAGAGGAUUGAGCAUCA
B7: chr8:95530139:95530140:-_ENSG00000164944_ENST00000437199|hu_mus|motif|central (ssRNA)
RNA: GGGAGUUCUACAGUCCGACGAUCGACACCGCUGGAAGACUGAGCCACCACCAGCGUGAGUACGCAUGCGUAAUUAUAAGCGGCUGACUUCUUAGACUUGGAAUCGCCUAGGGCUUCUUUGGAAUAGUACUCCAUUAGAGUAAUCAACAGAGGAUUGAGCAUCA
B8: 11988921_11994759_323_CDS_ENSMUSG00000046139_ENSMUST00000061618|mouse|control|control (ssRNA)
RNA: GGGAGUUCUACAGUCCGACGAUCUCUCUCUCCAUUGCCUGUUUGUUCAUCAGCUGCCACAGGUAGCUUCUCUUCCAACUCAGCCAGGCGCUCAUGUGCUUCCUGCCAAUCAUCAUCAACUGCACCUGACCCAAAGGUAUCAUCCAACAGAGGAUUGAGCAUCA
B9: chr22:32879901:32879902:+_ENSG00000100225_ENST00000397426|hu_mus|hu_hu_hu_mus_False|28_98 (ssRNA)
RNA: GGGAGUUCUACAGUCCGACGAUCCUCUUCCAUACUCGCAUUAUCUUGAAUUGACUCAGCUUCAACAUUUUGACUAGGCCCUUCCAUACUGUCAUCAGUCCAGGCAUCAGACUGGGCGGCCUGUCCUUGGGAUGAAUCAGUCCCCAACAGAGGAUUGAGCAUCA
B10: chr3:15292738:15292739:+_ENSG00000131375_ENST00000253693|hu_hu|FALSE|FALSE (ssRNA)
RNA: GGGAGUUCUACAGUCCGACGAUCAGCCAGUAACUUGAGAUUUCUCCAUCACUGAAGUUGUGUGAUCUUGAUGGGGAUAAUACUAUUAAAGUCCAAGAAAAAAGGUCCUUCUUGUUUAGGCAAAAAGGUACUAGGAAUGAUAUUCAACAGAGGAUUGAGCAUCA
B11: chr17:45747064:45747065:+_ENSG00000108424_ENST00000290158|hu_hu|hu_hu_hu_mus_True|98_98 (ssRNA)
RNA: GGGAGUUCUACAGUCCGACGAUCGCCCACAGUCCACGCAGCUGUAUCUCGAACAACUACACUGGGGUCUUUCAUUAGUUCUAUUAGGGUGGGCAUAGCCUGUAUGACUAAUGGUUUCAGUUGAUUAGGCUCUGGUCCUUCCAACAACAGAGGAUUGAGCAUCA
B12: chr7:135612270:135612271:-_ENSG00000105887_ENST00000393085|hu_mus|hu_hu_hu_mus_False|18_28 (ssRNA)
RNA: GGGAGUUCUACAGUCCGACGAUCGUUUUUUUCUGAGAUGUUAAAUAGUACUUCAGUGGAAAACAAAACUUAACCUUUUAUUAAUGCGUGUUGUACCAAAAGCAGACCAUGGUUUUAGCUUCCUUUAAAAAUAUUAACAUUAAGCAACAGAGGAUUGAGCAUCA
B13: chr17:56167648:56167649:+_ENSG00000264364_ENST00000579991|hu_mus|FALSE|FALSE (ssRNA)
RNA: GGGAGUUCUACAGUCCGACGAUCUGUUCUCACCCUCACAACAGGGAACAUAAAAGCCCACUUAGAACUAACUGCCCUCUACUUCCCAUACACCCUAGAGAUUCCACUUAUCCUGCCCCUUCCCACCCUUCUACCCCAAACCCACAACAGAGGAUUGAGCAUCA
B14: chr3:176740097:176740098:-_ENSG00000177565_ENST00000430069|hu_mus|hu_hu_hu_mus_True|28_48 (ssRNA)
RNA: GGGAGUUCUACAGUCCGACGAUCUGUUUUGUAUACCACAAAAGGAGGCACUUUCAGUAUCUGCAAAAGGUGUUUAGUCCUAAAACAUACUUACCUAGAGGAUAACUAAAACAGAAUAUCUGUUACACUCUAAGACCUACUCCACAACAGAGGAUUGAGCAUCA
B15: chr12:32871593:32871594:+_ENSG00000087470_ENST00000452533|hu_mus|motif|central (ssRNA)
RNA: GGGAGUUCUACAGUCCGACGAUCCAAUACAUCCAUGGCAUCAGUACCCGCAUCCAUGAGAUCAAGUUUAGUGAUUACAGCGGGAGUUCUGCGCCCAUCUGGAUCUACCUCUCUGGAAAUCUUGAGUGCUUCUGAUGUUGCCAUCAACAGAGGAUUGAGCAUCA
B16: 84155827_84155947_371_CDS_ENSMUSG00000045658_ENSMUST00000168574|mouse|control|control (ssRNA)
RNA: GGGAGUUCUACAGUCCGACGAUCUGCCUUCAUCAGGGGUGUGGUGGUGCACAGCUCAAUGGCUUCCGGCUCAUGGAAGAGGACUGCUGGUAUAGGUUCCUUUUUCAGUGUUAGGACAUUCAACUUAGACUUCAGCAUGGUCUGCAACAGAGGAUUGAGCAUCA
B17: 33854873_33854993_5922_3pUTR_ENSMUSG00000042197_ENSMUST00000044455|mouse|control|control (ssRNA)
RNA: GGGAGUUCUACAGUCCGACGAUCUGGGGCAAAAUAUGCCUCACAUUAAAGAAAAAGGUUUUUGUUAUUGCAAUCUUCUACUUCUAAAGAGAUCUAACACAUAAUUUCAAGCCUUCAGCAGAAUCCCAAUUAACUUCAAGAACACAACAGAGGAUUGAGCAUCA
B18: chr14:21319500:21319501:-_ENSMUSG00000021816_ENSMUST00000161445|mus_mus|motif|central (ssRNA)
RNA: GGGAGUUCUACAGUCCGACGAUCGAGCUGUACUCCAGGGCAUGAGGGAAGCAGGCCACCAAAGUAAAGGGAAAUACCAAACGGCAGUGGUAAUCAGUACAGGUCAGUCACUGUAAAAUUAGCACAUGGUUCCAUUUAGUUUAACAACAGAGGAUUGAGCAUCA
B19: 94664534_94664654_4104_CDS_ENSMUSG00000040785_ENSMUST00000117648|mouse|control|control (ssRNA)
RNA: GGGAGUUCUACAGUCCGACGAUCGCAGAAUCCUGUGACCAAGUGUGAUUGAGCCCAGUAUGUUGGUUUGGCUUCUUCAGGAGCUGGCGUGGGGGAAGGAGAAGCAUCCUCACAGAGUGGUGUAGGAGAGUCAGGAGAGGCCACCAACAGAGGAUUGAGCAUCA
B20: chr10:112764417:112764418:+_ENSG00000108061_ENST00000369452|hu_hu|FALSE|FALSE (ssRNA)
RNA: GGGAGUUCUACAGUCCGACGAUCGAUGGUAGAAAACUGAGAUGGACCACCCACUGGAUACAACUGGAAGCAAUUUCUAGCUAAGGUCAAACUAUUCAGUUUCACAAGACUUGAUAAAAGACUCUCUGGUAAAGUAGAAAUGUUCAACAGAGGAUUGAGCAUCA
B21: chr10:33190432:33190433:-_ENSG00000150093_ENST00000302278|hu_mus|hu_hu_hu_mus_True|98_108 (ssRNA)
RNA: GGGAGUUCUACAGUCCGACGAUCUACAUUUUCAAAACCUGCACAUGAAUAAAACCCUGGCCACAGAGCCCCAAAACUACCCUACUGUGACUAAGAUGCUGCUGCUGUGAGCUUGGUGUUGCAAAAUCCGCCUGAGUAGGAUUCCAACAGAGGAUUGAGCAUCA
B22: chr17:64801638:64801639:+_ENSG00000154229_ENST00000413366|hu_mus|hu_hu_hu_mus_False|78_88 (ssRNA)
RNA: GGGAGUUCUACAGUCCGACGAUCUAUAUAUAUAUAUACAUAUGUACACAUAUGUAGUAAGAGCCUAGUUAAACGUGUAAAGUAGCCAUUCAUUUUUAAAAUUACAUCUACAUUAAAAAAUUAAUAUAUCUGAUAGAGUGCCAGCAACAGAGGAUUGAGCAUCA

Some of the results follow.

The test addresses T1, UNK ZnF1-3. The test is described as follows: nsRBNS (natural sequence RNA bind-n-seq); RBNS binding buffer (assumed for nsRBNS): 25 mM Tris pH 7.5, 150 mM KCl, 3 mM MgCl2, 0.01% Triton X-100, 500 ug/ml BSA, 20 U/ml SUPERase-In, 4 C; UNK is unkempt and MSI1 is Musashi-1; names of the RNAs are library labels; protein concentration not given here; high values mean tight binding.
B1: the binding signal stood at 1.53 enrichment R.
Then B2, with 0.635 enrichment R.
As for B3, the figure is 0.57 enrichment R; as for B4, 2.43 enrichment R.
As for B5, the figure is 0.734 enrichment R; as for B6, 0.915 enrichment R; as for B7, 1.13 enrichment R.
With B8, the binding signal was 1.03 enrichment R.
Consider B9, for which the binding signal was found to be 0.995 enrichment R.
Turning to B10, the binding signal worked out at 0.746 enrichment R.
As for B11, the figure is 0.64 enrichment R; as for B12, 0.893 enrichment R; as for B13, 1.74 enrichment R.
B14 returned a binding signal of 0.844 enrichment R.
Then B15, with 1.07 enrichment R; and B16, with 0.983 enrichment R.
B17 displayed a binding signal of 1.06 enrichment R.
B18 gave a binding signal of 1.58 enrichment R.
As to B19, the binding signal was 2.12 enrichment R.
Then B20, with 1.16 enrichment R; and B21, with 1.28 enrichment R.
For the molecule B22, the binding signal is 2.24 enrichment R.
